The record followed here is PubChem BioAssay (NCI).

For the test, the system named is MDA-MB-468 breast. In words: inhibition of tumour cell growth, NCI panel, 48 h.

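Exposure lasted 48 hours, with cells grown in 96-well plates and compounds tested at five concentrations. TGI denotes the concentration required for complete inhibition of growth.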 A number of entries come with more than one value. They are shown here; other results are not. An entry can have further records. For some assays here: Records of one sample usually come from different ranges of test concentrations, which the source does not state; some values may only mark the edge of a range. For some assays here: Results that share an entry repeat one measurement across runs, samples, wells, individuals or studies. What stands in brackets tells the records apart. Letters hold for one entry only.

As to `CC(=O)O[C@H]1C(=O)[C@@]2(C)[C@H]([C@H](OC(=O)c3ccccc3)[C@]3(O)C[C@H](OC(=O)[C@H](O)[C@@H](NC(=O)c4ccccc4)c4ccccc4)C(C)=C1C3(C)C)[C@]1(OC(C)=O)CO[C@@H]1C[C@@H]2O`, the TGI is 49.5 nM [1 test] and 289 nM [mean of 2 tests] and 13.8 µM [mean of 3 tests] and 1.4 µM [mean of 5 tests].
Take `COc1cc(Nc2nc3ccccc3nc2NS(=O)(=O)c2ccc(NC(=O)c3ccc(C)c(OC)c3)cc2)cc(OC)c1`: the TGI was 34.5 µM [sample A, 1 test] and 47.6 µM [sample B, 1 test] and 3.15 µM [sample C, mean of 2 tests].
